Experimental data published in article PMC4336329 (PLoS ONE, 2015).
In all, about 310,000 compounds went through this assay and about 2,200 (0.71%) showed an effect of 50% or more. The effect is printed as a negative number. The list shows a part of the results.

Target: human ether-à-go-go-related gene (hERG) potassium channel (human, UniProt Q12809)
Assay: primary screen, population patch clamp on CHO cells stably expressing hERG

Sequence of human ether-à-go-go-related gene (hERG) potassium channel (Q12809 whole entry, looked up): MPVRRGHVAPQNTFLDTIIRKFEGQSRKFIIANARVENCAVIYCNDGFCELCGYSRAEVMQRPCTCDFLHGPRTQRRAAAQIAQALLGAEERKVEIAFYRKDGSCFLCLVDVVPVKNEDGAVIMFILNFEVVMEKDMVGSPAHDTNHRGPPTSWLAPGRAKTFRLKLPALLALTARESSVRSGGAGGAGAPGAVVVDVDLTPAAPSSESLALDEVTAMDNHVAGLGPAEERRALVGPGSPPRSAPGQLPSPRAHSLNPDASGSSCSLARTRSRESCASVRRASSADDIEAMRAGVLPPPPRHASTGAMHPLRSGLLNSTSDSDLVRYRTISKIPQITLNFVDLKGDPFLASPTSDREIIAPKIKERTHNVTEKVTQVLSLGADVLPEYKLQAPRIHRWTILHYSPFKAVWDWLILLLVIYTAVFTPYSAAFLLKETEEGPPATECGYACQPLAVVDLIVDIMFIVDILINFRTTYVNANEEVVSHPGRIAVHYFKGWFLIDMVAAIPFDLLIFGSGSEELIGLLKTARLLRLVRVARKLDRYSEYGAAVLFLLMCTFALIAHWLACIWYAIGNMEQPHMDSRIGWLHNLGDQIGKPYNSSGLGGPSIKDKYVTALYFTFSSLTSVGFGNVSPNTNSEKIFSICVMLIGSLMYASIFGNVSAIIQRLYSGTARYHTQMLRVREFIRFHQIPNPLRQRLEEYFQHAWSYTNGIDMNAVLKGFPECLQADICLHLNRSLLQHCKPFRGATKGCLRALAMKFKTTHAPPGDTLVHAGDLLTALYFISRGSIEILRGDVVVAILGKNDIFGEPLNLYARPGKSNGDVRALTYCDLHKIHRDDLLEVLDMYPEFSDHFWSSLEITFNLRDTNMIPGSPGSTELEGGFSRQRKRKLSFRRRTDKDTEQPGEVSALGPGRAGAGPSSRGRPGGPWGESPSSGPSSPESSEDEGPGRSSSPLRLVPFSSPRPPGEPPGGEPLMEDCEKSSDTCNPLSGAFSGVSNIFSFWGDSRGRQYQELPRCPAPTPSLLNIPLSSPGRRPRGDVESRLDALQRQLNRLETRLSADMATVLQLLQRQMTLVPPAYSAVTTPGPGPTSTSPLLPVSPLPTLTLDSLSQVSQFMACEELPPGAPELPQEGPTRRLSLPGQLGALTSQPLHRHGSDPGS

In order of rising “hERG current change (%, negative = inhibition) at 1uM” value:
1. O=C(CSc1nc2ccccc2c(=O)n1Cc1ccco1)N1CCN(c2ccccc2)CC1  -83.6%
2. COc1ccc(CNCCC(c2ccccc2)c2ccc3c(c2)OCO3)cc1.Cl (centres unmarked)  -68.7%
3. CC(=O)N1N=C(c2ccc([N+](=O)[O-])cc2)CC1c1ccccc1Cl (centres unmarked)  -23.7%
4. O=c1ccn(-c2cccc(C(F)(F)F)c2)nc1-c1ccn(-c2ccccc2F)n1  -14.6%
5. Cc1cc(C)c2oc(C(=O)NC3CCS(=O)(=O)C3)cc(=O)c2c1 (centres unmarked)  -12.5%
6. O=[N+]([O-])c1c(Nc2ccccc2O)cc(N2CCOCC2)c2nonc12  -6.11%
7. CC1CCC(C)(NS(=O)(=O)OCC(Cl)(Cl)Cl)CC1 (centres unmarked)  -5.35%
8. CCN1CCc2c(sc(NC(=O)CN3C(=O)c4ccccc4C3=O)c2C(N)=O)C1.Cl  -3.96%
9. CC(Sc1nc(N)c2c3c(sc2n1)CSC(C)(C)C3)C(=O)Nc1ccccc1 (centres unmarked)  -3.24%
10. COc1ccccc1C(=O)NCCn1ccc2ccccc21  -3.17%
11. O=C(NCCCn1ccnc1)c1cccc(S(=O)(=O)NCc2ccccc2)c1  -0.842%
12. CS(=O)(=O)Nc1ccc(C(=O)Nc2ccccc2C(=O)N2CCCC2)cc1  -0.791%
13. O=C1COc2ccc(C(=O)COC(=O)CNC(=O)C3CCCCC3)cc2N1  -0.474%
14. O=C(NNC(=O)c1ccccc1Cl)c1cc2cc(OC(F)(F)F)ccc2[nH]1  -0.449%
15. CCOC(=O)c1c(CN(C)C)n(C)c2ccc(OC(C)=O)cc12.Cl  0.817%
16. CC1(OC(=O)C2CCCC2)C(=O)C=C2C=C(c3ccsc3)OC=C2C1=O (centres unmarked)  1.32%
17. O=C(NC1CC1)C1=C[C@H](c2ccccc2)C[C@H](OCc2ccc(CO)cc2)O1  1.4%
18. CCOC(=O)N1CCN(CC(=O)Nc2ccc(Oc3ccccc3)cc2)CC1  1.41%
19. CCOC(=O)C1(Cc2ccc(O)cc2)NC(c2ccco2)C2C(=O)N(c3ccccc3F)C(=O)C21 (centres unmarked)  2.14%
20. Cc1ccc(OC(=O)c2ccc(N3CCOCC3)c([N+](=O)[O-])c2)cc1  2.85%
21. CCc1ccc(Nc2n[n+](-c3ccccc3)c(/C=C/c3ccccc3)s2)cc1.[Cl-]  3.19%
22. CC(C)NC(=O)CCCc1ccccc1  3.52%
23. Cc1onc(-c2ccccc2)c1C(=O)N1CCCN(C(=O)c2c(-c3ccccc3)noc2C)CC1  3.61%
24. Cc1onc(-c2c(Cl)cccc2Cl)c1C(=O)N1C(C)CCCC1C (centres unmarked)  3.74%
25. Cc1ccc(C(=O)N/N=C2/NC(=O)CC(C(=O)Nc3ccccc3)S2)cc1 (centres unmarked)  3.96%
26. COC(=O)[C@@H]1C[C@@]2(O)[C@H](O)[C@H](O)[C@H](O)C[C@H]2N1CC1CC1  4.17%
27. COc1ccc(S(=O)(=O)N(C)C)cc1NCC(=O)Nc1cccc2ccccc12  4.36%
28. CCOC(=O)N1CCN(Cc2ccccc2F)CC1  4.36%
29. O=C(Nc1ccc(NC(=O)c2ccco2)c(Cl)c1)c1ccc2c(c1)OCCO2  4.42%
30. O=C(N/N=C/c1ccccn1)c1ccc(Cl)c(Cl)c1  5.21%
31. O=C(Nc1ccc(Oc2ccccc2)cc1)c1ccc(Cn2c(=O)[nH]c3ccsc3c2=O)cc1  5.52%
32. CCOC(=O)c1oc2cc(C)cc(O)c2c(=O)c1-c1csc(C)n1  5.58%
33. O=C(Nc1ccc2c(c1)Cc1ccccc1-2)c1ccc(Br)o1  5.67%
34. Cc1noc(C)c1C(=O)OCC(=O)Nc1ccccc1Oc1ccccc1  5.73%
35. C=C(C)Cn1c(SCC(=O)N/N=C/c2ccccc2OCC(=O)O)nnc1-c1ccc(Br)cc1  6.35%
36. Cn1cc(C(=O)N2CCOCC2)c2ccccc21  6.4%
37. CCOc1ccc(-n2c(=S)sc3c(=O)[nH]c(SCC(=O)NCc4ccco4)nc32)cc1  6.51%
38. CC(=O)c1ccc(NC(=O)c2ccc([N+](=O)[O-])o2)cc1  6.69%
39. O=Nc1c(O)n(Cc2cccc(C(F)(F)F)c2)c2ccccc12  6.7%
40. O=C(CSc1nc2c(oc3ccccc32)c(=O)n1CC1CCCO1)NCc1ccccc1 (centres unmarked)  6.87%
41. O=C(O)CCNc1cc(N2CCN(C(=O)c3ccco3)CC2)c2noc3c2c1C(=O)c1ccccc1-3  7.29%
42. O=c1cccc2n1CC1CC2CN(Cc2c(F)cccc2Cl)C1 (centres unmarked)  7.51%
43. COc1ccc(NP(=O)(Oc2cccc(C)c2)Oc2cccc(C)c2)cc1OC  8.04%
44. C=CCNC(=O)CSc1nnc(-c2ccc(S(=O)(=O)N3CCCC3)cc2)n1C  8.16%
45. COc1cc(S(=O)(=O)N2CCN(Cc3cccs3)CC2)ccc1NC(C)=O  8.36%
46. CCOC(=O)c1cccc(NC(=O)CCc2c(C)nc3ncnn3c2C)c1  8.47%
47. CCOC(=O)C(C)Sc1nnc(NC(=O)c2ccc(C)c([N+](=O)[O-])c2)s1 (centres unmarked)  8.68%
48. Nc1cccc(S(=O)(=O)Nc2ccc(Br)cc2)c1  8.69%
49. Cc1nn(C)c(Oc2ccc(Cl)cc2)c1C=O  8.9%
50. CC(=O)N(CN1C(=O)c2ccc([N+](=O)[O-])cc2C1=O)c1ccc(F)cc1  9.11%
51. CCC(C)(C)NC(=O)C(c1ccccn1)N(C(=O)c1csnn1)c1ccccc1 (centres unmarked)  9.26%
52. CN(C)c1ccc([C@@H]2[C@@H]([N+](=O)[O-])[C@H]3C=Cc4ccccc4N3[C@H]2C(=O)c2ccc(Cl)cc2)cc1  9.55%
53. O=[N+]([O-])c1nn(-c2cccc(Cl)c2)n(O)c1=NCc1cccnc1  9.69%
54. CC1(C)Cc2ccccc2C(C(=O)c2ccccc2)=N1  9.84%
55. CC(Oc1ccc(Cl)cc1Cl)C(=O)NCCCN1CCOCC1 (centres unmarked)  9.88%
56. O=c1c(C(c2ccc(Cl)cc2)c2c(O)nc3n(c2=O)CCS3)c(O)nc2n1CCS2  10.1%
57. Cc1cc(NC(=O)CSc2nc3ccc(Cl)cc3[nH]2)no1  10.2%
58. Cc1ccccc1OCC(=O)NNC(=O)c1ccc(-n2cncn2)c([N+](=O)[O-])c1  10.4%
59. Cc1cccc(N(CC(=O)NC(C)C)C(=O)c2ccc(N3CCCC3)nc2)c1  10.6%
60. COCCN1C(=O)N[C@@H](c2ccccc2)[C@@H](C(=O)OC)[C@H]1C  10.9%
61. O=C(Nc1ccc2oc(-c3ccncc3)nc2c1)c1ccc2c(c1)OCO2  10.9%
62. N#C/C(=N\Nc1ccccc1)C(=N)N1CCOCC1  11.4%
63. COc1ccc(/C=C/c2nc3ccccc3n2Cc2ccc(OC)c(OC)c2)cc1  11.5%
64. O=C(N/N=C/c1ccc(O)cc1)c1cc(-c2ccc3c(c2)OCO3)n[nH]1  11.5%
65. O=C(CCN1C(=O)C2CCCCC2C1=O)Nc1nc(-c2ccccc2)cs1 (centres unmarked)  12.5%
66. CCc1ccc(C(C(=O)NC2CCCCC2)N(C(=O)c2ccccn2)c2cccnc2)cc1 (centres unmarked)  12.9%
67. Cc1ccccc1SC1CCN(C(=O)C2CCC(=O)N(C3CC3)C2)CC1 (centres unmarked)  13.4%
68. COc1ccc(NC(=O)NC2(C(=O)N3CCN4CCCC4C3)CCCCC2)cc1 (centres unmarked)  14%
69. O=C(COc1ccc2c3c(c(=O)oc2c1)CCC3)N[C@@H](Cc1ccccc1)C(=O)O  14.1%
70. Cn1cncc1C#Cc1ccc2cc(C3(O)CCCCC3)oc(=O)c2c1  14.1%
71. CC(C)Oc1ccc(CCNC(=O)C2CCC(=O)N(C3CCCCCC3)C2)cc1 (centres unmarked)  14.3%
72. CCOC(=O)C(=CNNc1ccsc1C(=O)OC)C(=O)OCC  14.3%
73. Cc1ccc(C)n1-c1ccc(C(=O)NN)cc1  14.7%
74. COc1ccc(CCNC(=O)C2CC(=O)N(CCc3ccc(C)cc3)C2)cc1OC (centres unmarked)  14.9%
75. O=C(O)c1ccc(OC(F)(F)C(F)C(F)(F)F)cc1 (centres unmarked)  15%
76. CNC(=S)NNC(=O)c1sccc1OCc1ccccc1  15%
77. CCCCNC(=O)c1onc(CCl)c1C(=O)OC  15.7%
78. COc1cccc(NC2=NCC(=O)N2Cc2cccs2)c1.Cl  15.8%
79. Cc1ccc(N(CC(=O)Nc2cc(Cl)ccc2Oc2ccccc2)S(C)(=O)=O)cc1C  15.9%
80. CCc1cc(/C(Cc2ccccn2)=N\Nc2ccccc2)c(O)cc1O  16.4%
81. O=c1c(Cc2ccccc2)c(O)ccn1Cc1ccco1  17.2%
82. O=C(Nn1c(=O)[nH]c2ccsc2c1=O)c1ccccc1  17.3%
83. CCCN1C(=O)NC2(O)C(=O)c3ccccc3C12O (centres unmarked)  17.5%
84. O=C(COC(=O)c1ccc(Cl)s1)c1ccc[nH]1  18.3%
85. O=C(O)CC(c1ccc(F)cc1F)N1Cc2ccccc2C1=O (centres unmarked)  18.4%
86. O=C(NCc1ccon1)C1CCC(=O)N(Cc2cccc(C(F)(F)F)c2)C1 (centres unmarked)  20.8%
